The other results are listed elsewhere or left out. The full chains were built here from the parent and the listed change. Values near 0.05 are background.
B1: TEV protease; numbered along this chain (parent)
chain: MGESLFKGPRDYNPISSSICHLTNESDGHTTSLYGIGFGPFIITNKHLFRRNNGTLVVQSLHGVFKVKDTTTLQQHLVDGRDMIIIRMPKDFPPFPQKLKFREPQREERICLVTTNFQTKSMSSMVSDTSCTFPSGDGIFWKHWIQTKDGQCGSPLVSTRDGFIVGIHSASNFTNTNNYFTSVPKNFMELLTNQEAQQWVSGWRLNADSVLWGGHKVFMVKPEEPFQPVKEATQL

Variants of: B1
Assay: raw area under fraction-flipped curve 0-4 h after induction (AUC4h, not background-subtracted), DNA-recorder readout of cleavage of the substrate (dimensionless); higher = more cleavage of the substrate by the protease variant
Conditions: temperature: 34 °C; time window: 0-4 h after rhamnose induction
Description: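 In vivo DNA recorder in E. coli TOP10(DE3) ΔrhaA at 34 °C. Each TEVp single-site mutant (parent TEVp 0) is paired with a single-site variant of the 7-mer TEVs (canonical ENLYFQ|S). The substrate sits between flexible linkers in a Bxb1-sfGFP-TEVs-SsrA fusion, so cleavage stabilises Bxb1 and speeds flipping of a recombination array, read by NGS. The value is the raw area under the fraction-flipped curve over 0-4 h after rhamnose induction (AUC4h), with ≥20 reads per time point. It is not background-subtracted; inactive controls average about 0.047.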
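Note: Bxb1 expression induced with 0.2% (w/v) L-rhamnose at OD600 near 0.5, cultures sampled hourly, flipped fraction per protease–substrate barcode pair counted by paired-end Illumina sequencing.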

Row | Variant | area with substrate EALYFQS | area with substrate ECLYFQS | area with substrate EHLYFQS | area with substrate EILYFQS | area with substrate EKLYFQS | area with substrate ELLYFQS | area with substrate EMLYFQS | area with substrate EPLYFQS | area with substrate EQLYFQS | area with substrate ERLYFQS | area with substrate ESLYFQS | area with substrate ETLYFQS | area with substrate EVLYFQS | area with substrate EWLYFQS | area with substrate EYLYFQS | area with substrate EDLYFQS | area with substrate EGLYFQS | area with substrate EELYFQS | area with substrate EFLYFQS
1 | MGESLFKGPRDYNPISSSICHLTNESDGHTTSLYGIGFGPFIITNKHLFRRNNGTLVVQSLHGVFKVKDTTTLQQHLVDGRDMIIIRMPKDFPPFPQKLKFREPQRVERICLVTTNFQTKSMSSMVSDTSCTFPSGDGIFWKHWIQTKDGQCGSPLVSTRDGFIVGIHSASNFTNTNNYFTSVPKNFMELLTNQEAQQWVSGWRLNADSVLWGGHKVFMVKPEEPFQPVKEATQL [E107V] | 0.136 | 0.117 | 0.0937 | 0.0955 | 0.108 | 0.0655 | 0.104 | 0.0958 | 0.108 | 0.0963 | 0.0882 | 0.073 | 0.107 | 0.093 | 0.0796 |  |  |  | 
2 | MGESLFKGPRDYNPISSSICHLTNESDGHTTSLYGIGFGPFIITNKHLFRRNNGTLVVQSLHGVFKVKDTTTLQQHLVDGRDMIIIRMPKDFPPFPQKLKFREPQRQERICLVTTNFQTKSMSSMVSDTSCTFPSGDGIFWKHWIQTKDGQCGSPLVSTRDGFIVGIHSASNFTNTNNYFTSVPKNFMELLTNQEAQQWVSGWRLNADSVLWGGHKVFMVKPEEPFQPVKEATQL [E107Q] | 0.147 | 0.1 |  |  |  |  | 0.0954 |  | 0.102 | 0.0962 | 0.125 | 0.113 | 0.0973 |  | 0.106 | 0.0995 | 0.1 |  | 
3 | MGESLFKGPRDYNPISSSICHLTNESDGHTTSLYGIGFGPFIITNKHLFRRNNGTLVVQSLHGVFKVKDTTTLQQHLVDGRDMIIIRMPKDFPPFPQKLKFREPQRDERICLVTTNFQTKSMSSMVSDTSCTFPSGDGIFWKHWIQTKDGQCGSPLVSTRDGFIVGIHSASNFTNTNNYFTSVPKNFMELLTNQEAQQWVSGWRLNADSVLWGGHKVFMVKPEEPFQPVKEATQL [E107D] | 0.0951 | 0.084 | 0.107 | 0.102 |  | 0.0925 | 0.0955 | 0.119 | 0.102 | 0.106 | 0.114 |  | 0.0971 | 0.0843 | 0.102 | 0.122 | 0.097 | 0.145 | 0.087
4 | MGESLFKGPRDYNPISSSICHLTNESDGHTTSLYGIGFGPFIITNKHLFRRNNGTLVVQSLHGVFKVKDTTTLQQHLVDGRDMIIIRMPKDFPPFPQKLKFREPQREERACLVTTNFQTKSMSSMVSDTSCTFPSGDGIFWKHWIQTKDGQCGSPLVSTRDGFIVGIHSASNFTNTNNYFTSVPKNFMELLTNQEAQQWVSGWRLNADSVLWGGHKVFMVKPEEPFQPVKEATQL [I110A] | 0.0987 | 0.0798 | 0.123 |  | 0.0729 |  |  |  |  |  |  |  | 0.0868 |  |  | 0.124 |  |  | 
5 | MGESLFKGPRDYNPISSSICHLTNESDGHTTSLYGIGFGPFIITNKHLFRRNNGTLVVQSLHGVFKVKDTTTLQQHLVDGRDMIIIRMPKDFPPFPQKAKFREPQREERICLVTTNFQTKSMSSMVSDTSCTFPSGDGIFWKHWIQTKDGQCGSPLVSTRDGFIVGIHSASNFTNTNNYFTSVPKNFMELLTNQEAQQWVSGWRLNADSVLWGGHKVFMVKPEEPFQPVKEATQL [L99A] | 0.0574 | 0.0854 |  | 0.0928 | 0.105 | 0.105 |  | 0.114 | 0.125 | 0.0871 |  |  | 0.0995 |  | 0.0908 |  |  |  | 0.0872
6 | MGESLFKGPRDYNPISSSICHLTNESDGHTTSLYGIGFGPFIITNKHLFRRNNGTLVVQSLHGVFKVKDTTTLQQHLVDGRDMIIIRMPKDFPPFPQKLKFREPQREERICLVTTGFQTKSMSSMVSDTSCTFPSGDGIFWKHWIQTKDGQCGSPLVSTRDGFIVGIHSASNFTNTNNYFTSVPKNFMELLTNQEAQQWVSGWRLNADSVLWGGHKVFMVKPEEPFQPVKEATQL [N116G] | 0.104 | 0.108 |  | 0.0845 | 0.114 | 0.0949 | 0.117 | 0.135 |  | 0.0803 | 0.0738 | 0.136 | 0.097 |  |  | 0.105 |  |  | 
7 | MGESLFKGPRDYNPISSSICHLTNESDGHTTSLYGIGFGPFIITNKHLFRRNNGTLVVQSLHGVFKVKDTTTLQQHLVDGRDMIIIRMPKDFPPFPQKLKFREPVREERICLVTTNFQTKSMSSMVSDTSCTFPSGDGIFWKHWIQTKDGQCGSPLVSTRDGFIVGIHSASNFTNTNNYFTSVPKNFMELLTNQEAQQWVSGWRLNADSVLWGGHKVFMVKPEEPFQPVKEATQL [Q105V] | 0.114 |  |  | 0.0992 | 0.0986 |  |  | 0.0776 | 0.118 |  | 0.126 |  | 0.131 |  | 0.139 |  |  | 0.136 | 0.161
8 | MGESLFKGPRDYNPISSSICHLTNESDGHTTSLYGIGFGPFIITNKHLFRRNNGTLVVQSLHGVFKVKDTTTLQQHLVDGRDMIIIRMPKDFPPFPQKLKAREPQREERICLVTTNFQTKSMSSMVSDTSCTFPSGDGIFWKHWIQTKDGQCGSPLVSTRDGFIVGIHSASNFTNTNNYFTSVPKNFMELLTNQEAQQWVSGWRLNADSVLWGGHKVFMVKPEEPFQPVKEATQL [F101A] | 0.0748 |  | 0.0806 | 0.0631 | 0.0773 | 0.0681 |  |  |  | 0.065 |  |  |  |  |  |  |  |  | 
9 | MGESLFKGPRDYNPISSSICHLTNESDGHTTSLYGIGFGPFIITNKHLFRRNNGTLVVQSLHGVFKVKDTTTLQQHLVDGRDMIIIRMPKDFPPFPQKLKFREPQREERICLVTINFQTKSMSSMVSDTSCTFPSGDGIFWKHWIQTKDGQCGSPLVSTRDGFIVGIHSASNFTNTNNYFTSVPKNFMELLTNQEAQQWVSGWRLNADSVLWGGHKVFMVKPEEPFQPVKEATQL [T115I] | 0.104 | 0.102 | 0.1 | 0.0861 | 0.0896 |  |  |  | 0.121 |  |  | 0.0836 | 0.083 |  |  |  | 0.0709 |  | 
10 | MGESLFKGPRDYNPISSSICHLTNESDGHTTSLYGIGFGPFIITNKHLFRRNNGTLVVQSLHGVFKVKDTTTLQQHLVDGRDMIIIRMPKDFPPFPQKLKFREPQREERICLETTNFQTKSMSSMVSDTSCTFPSGDGIFWKHWIQTKDGQCGSPLVSTRDGFIVGIHSASNFTNTNNYFTSVPKNFMELLTNQEAQQWVSGWRLNADSVLWGGHKVFMVKPEEPFQPVKEATQL [V113E] | 0.0743 |  |  | 0.0645 |  | 0.0721 |  |  | 0.0754 | 0.0648 | 0.0741 |  | 0.0882 | 0.0628 |  |  |  | 0.0502 | 
